The results in this text go back to ChEMBL document CHEMBL4888484, “Replenishing the malaria drug discovery pipeline: Screening and hit evaluation of the MMV Hit Generation Library 1 (HGL1) against asexual blood stage Plasmodium falciparum ,using a nano luciferase reporter read-out” (2022).

Structures are written as SMILES. The campaign covered roughly 150,000 compounds. About 540 (0.36%) showed an effect of 50% or more. The list shows a part of the results.

The subject of this assay is Plasmodium falciparum. Nature of the assay: Primary screen in NF54 nanoGlo assay, in single point, at 2uM, 72h; a lower Z score goes with more inhibition. Particulars: timepoint 72 hour. The assay is classed as functional, Erythrocyte.
A word on the % Inhibition: it is the relative decrease from the control value, in per cent. With `COc1ccc(N2C[C@@H](C(=O)N3CCC4(CC3)OCCO4)CC2=O)cc1`, the “% Inhibition” value was found to be 0% and the Z score is 0.04.

On to `CC(C)n1ccc(C(=O)Nc2ccc(OCC3CC3)cc2)n1`, for which the “% Inhibition” value came out at 2% and the Z score is -0.27.

For the compound `CCNc1ccnc(-c2cccc(C(=O)N[C@H]3COC[C@@H]3N3CCCC3)c2)n1`, the “% Inhibition” value was -12% and the Z score worked out at 2.23.

Consider `COc1ccc(Cl)cc1N1C(=O)[C@@H]2C[C@H]1CN2Cc1cccnc1`, for which the “% Inhibition” value is -2% and the Z score was 0.21.

As to `Cc1cc(C)cc(CC(C)NC(=O)N[C@@H](C)C(=O)N(C)C)c1` (stereo partly specified), the “% Inhibition” value is reported as -7% and the Z score is given as 0.92.

In the case of `O=C(O)[C@@]12COc3ccccc3[C@@H]1CN(CCS(=O)(=O)c1ccccc1)C2`, the “% Inhibition” value was -17% and the Z score amounted to 2.69.

In the case of `O=c1[nH]c2cccc(CN3CCOCC34CCC4)c2o1`, the “% Inhibition” value was -7% and the Z score worked out at 1.07.

For the compound `O=C([C@H]1CC12CC2)N1CCC(c2n[nH]c(=O)o2)CC1`, the “% Inhibition” value was found to be 4% and the Z score is reported as -0.81.

Consider `COc1cccc2c1OC[C@@]1(C(=O)O)CN(CCC(F)(F)C(F)F)C[C@@H]21`, for which the “% Inhibition” value was -18% and the Z score is listed as 1.92.

For the compound `Cc1noc(C)c1C(C)(C)C(=O)NCCc1nc(=O)o[nH]1`, the “% Inhibition” value is recorded as -10% and the Z score was 1.75.

Consider `CC(C)(C)c1nc(CN2C3CCC2c2ccccc23)no1`, for which the “% Inhibition” value is 22% and the Z score was -2.84.

With `Cc1cc(CC(C)C)nc(N2CC[C@@]3(C2)NCCc2[nH]cnc23)n1`, the “% Inhibition” value is -3% and the Z score is 0.48.

As for `O=C(Nc1ccc(=O)n2c1[C@@H]1C[C@@H](CN(C(=O)c3ccc(F)cc3)C1)C2)c1cncnc1`, the “% Inhibition” value is 9% and the Z score is -1.12.

As for `CC(=O)Nc1ccc(-c2c(C#N)c(N)nc3c2[C@@H]2CCC[C@H](C3)N2C)cc1`, the “% Inhibition” value is given as -5% and the Z score came out at 0.65.

For the compound `CN(CC(C)(C)O)S(=O)(=O)c1ccc(C#N)c(C(F)(F)F)c1`, the “% Inhibition” value is -14% and the Z score is 1.61.

On to `c1cc2c(c(-c3cncnc3)c1)CCNC2`, for which the “% Inhibition” value was -7% and the Z score came to 0.93.

With `Cc1ccc(F)c(C(=O)N2CCN([C@H]3CN4CCC3CC4)CC2)c1Cl`, the “% Inhibition” value is -9% and the Z score is on record as 0.86.

Consider `Cc1c(C(=O)N2CCN([C@H]3CN4CCC3CC4)CC2)[nH]c2c(F)cccc12`, for which the “% Inhibition” value is on record as -27% and the Z score is listed as 2.57.

With `CO[C@H]1C[C@H]2CC[C@@H](C1)N2CCOCc1ccccc1`, the “% Inhibition” value is listed as -5% and the Z score amounted to 0.88.

As for `CC(C)Cc1ccc(CN2[C@@H]3CC[C@H]2C[C@@H](O)C3)s1`, the “% Inhibition” value is 21% and the Z score is -2.68.

Take `c1ccc2[nH]c(C3CC4CCCCC4N3)nc2c1` (stereo unspecified): the “% Inhibition” value is 11% and the Z score is on record as -0.9.

In the case of `O=C(Cc1ccc2c(c1)OCO2)N1CC(N2CCc3sccc3C2)C1`, the “% Inhibition” value is listed as -8% and the Z score turned out to be 1.42.

Consider `CCCn1cc(C(=O)Nc2ccc3c(c2)OCCO3)c2cccnc21`, for which the “% Inhibition” value is -1% and the Z score turned out to be 0.08.

Consider `CN(C)S(=O)(=O)Nc1cccc(OC(=O)N2CCOCC2)c1`, for which the “% Inhibition” value turned out to be 36% and the Z score is recorded as -5.14.

Turning to `N#CC1CNCC12C(=O)Nc1ccccc12` (stereo unspecified), the “% Inhibition” value was determined as 1% and the Z score was -0.11.

As to `C(#CCN1CCCCC1)COC/C=C/c1ccccc1`, the “% Inhibition” value is -5% and the Z score is listed as 0.93.

For the compound `CS(=O)(=O)Cc1nc(CN2C3CCC2c2ccccc23)cs1`, the “% Inhibition” value is -10% and the Z score was determined as 1.38.

In the case of `COCC1(C(=O)N2C[C@@H](c3cccc(OC)c3)[C@@H]3[C@H]2C2CCN3CC2)CCC1`, the “% Inhibition” value is recorded as -5% and the Z score turned out to be 0.89.

Consider `O=C(COc1ccccc1Cl)N1C[C@H]2CC[C@@H](C1)N(CC1CC1)C2`, for which the “% Inhibition” value is -5% and the Z score is on record as 0.56.

For the compound `CN(CCc1ccccn1)C[C@H]1C[N@@]2CC[C@H]1C[C@@H]2CNS(=O)(=O)c1ccc(Cl)cc1`, the “% Inhibition” value was 27% and the Z score was -3.1.

In the case of `CCN(CC)C(=O)c1ccc2c(c1)N(CC(=O)N1CCC3(CC1)OCCO3)C(=O)CO2`, the “% Inhibition” value was 3% and the Z score is -0.45.

In the case of `CCc1c(C(=O)N[C@H]2COc3cccc(F)c32)cnn1CC(C)C`, the “% Inhibition” value was -16% and the Z score is 2.26.

`O=c1[nH]c2ccc(NS(=O)(=O)c3ccccc3Cl)cc2o1`: the “% Inhibition” value amounted to 14% and the Z score is given as -2.07.

Take `N#Cc1cccnc1N1C[C@H](c2ccccc2)[C@@H]2[C@H]1C1CCN2CC1`: the “% Inhibition” value is recorded as 7% and the Z score was -1.41.

On to `CN(C)c1ccnc(N2C[C@@H](c3ccc4c(c3)OCO4)[C@@H]3[C@H]2C2CCN3CC2)n1`, for which the “% Inhibition” value is recorded as -7% and the Z score turned out to be 0.91.

Regarding `Cc1ccc2c(c1)C[C@]1(CN2C)C(=O)NC(=O)N(C2CCCCCC2)C1=O`, the “% Inhibition” value is on record as 28% and the Z score was -3.12.

In the case of `CC(=O)[C@H](C#N)c1c(Cl)cccc1Cl`, the “% Inhibition” value is -24% and the Z score was determined as 2.22.

With `CC(C)(C)OC1CC(N2C[C@H](O)C3(CC3)C2)C1` (stereo partly specified), the “% Inhibition” value was 2% and the Z score is listed as -0.17.

Turning to `O=C(c1ccc2[nH]c3c(c2c1)CCCC3)N1CC1`, the “% Inhibition” value is given as -7% and the Z score was 1.42.

For `CN1CCN(CC(=O)N2CCC3(CC2)OCCO3)c2ccc(Cl)cc21`, the “% Inhibition” value is -13% and the Z score is reported as 2.46.

As for `COc1ccc(N2C(=O)NC(=O)C3(Cc4cccc(F)c4N4CCOCC43)C2=O)cc1` (stereo unspecified), the “% Inhibition” value was -5% and the Z score was 0.72.

On to `CCOc1cc(C(=O)N2CCC[C@H]3CN(C)C[C@H]32)ccn1`, for which the “% Inhibition” value is -4% and the Z score is recorded as 0.62.

With `NC1(c2nc(C[C@H]3CCCO3)no2)CCCCC1`, the “% Inhibition” value is reported as -1% and the Z score was determined as 0.14.

For `Cc1ncccc1CNC1CCC(F)C1` (stereo unspecified), the “% Inhibition” value is 2% and the Z score is -0.25.

With `O=C(N[C@H]1COC[C@@H]1N1CCOCC1)c1cc(Cl)c[nH]1`, the “% Inhibition” value was -7% and the Z score is recorded as 1.15.

Turning to `C[C@@H](Cn1cc(Br)cn1)NCCCN(C)CC(F)(F)F`, the “% Inhibition” value is reported as -14% and the Z score is listed as 1.27.

For `Cc1c[nH]nc1CN1C[C@@H](CO)[C@H](c2ccc(Cl)cc2)C1`, the “% Inhibition” value was determined as 8% and the Z score is reported as -1.39.

For `O=c1ccc(-c2ccc(OC(F)(F)F)cc2)c2n1C[C@@H]1CNC[C@H]2C1`, the “% Inhibition” value was -2% and the Z score is recorded as 0.31.
